Laboratory results taken from PubChem BioAssay AID1159614 (National Center for Advancing Translational Sciences (NCATS), 2016).
The whole screen tested about 45,000 compounds, of which about 65 (0.1%) were called active. The call rests on the fitted dose curve; in most records, active means well fitted activation curve with a large enough effect; inconclusive means small, poorly fitted or top-dose-only effect; inactive means no such curve, though single readings can be large or run the other way. The list shows a part of the results.

Molecular target: Galactocerebrosidase (Homo sapiens) (UniProt P54803)
UniProt P54803, sequence (P54803 whole entry, looked up): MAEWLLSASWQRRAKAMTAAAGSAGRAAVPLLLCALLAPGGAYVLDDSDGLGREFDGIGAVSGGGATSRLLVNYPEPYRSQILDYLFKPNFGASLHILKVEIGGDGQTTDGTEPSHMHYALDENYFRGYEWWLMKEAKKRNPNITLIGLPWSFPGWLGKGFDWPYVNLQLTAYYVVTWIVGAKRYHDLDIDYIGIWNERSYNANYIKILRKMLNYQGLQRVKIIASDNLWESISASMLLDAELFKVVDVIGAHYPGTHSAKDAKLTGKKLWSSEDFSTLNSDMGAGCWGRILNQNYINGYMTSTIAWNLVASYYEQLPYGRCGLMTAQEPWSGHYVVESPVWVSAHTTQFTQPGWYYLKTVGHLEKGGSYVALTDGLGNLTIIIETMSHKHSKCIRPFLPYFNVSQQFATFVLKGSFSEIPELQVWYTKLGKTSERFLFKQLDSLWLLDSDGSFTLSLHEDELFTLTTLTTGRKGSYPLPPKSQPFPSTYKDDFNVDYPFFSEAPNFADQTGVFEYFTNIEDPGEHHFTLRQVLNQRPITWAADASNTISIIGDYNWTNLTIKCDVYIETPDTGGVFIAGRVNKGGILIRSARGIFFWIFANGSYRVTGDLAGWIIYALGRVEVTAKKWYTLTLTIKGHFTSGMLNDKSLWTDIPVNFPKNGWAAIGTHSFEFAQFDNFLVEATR
Assay: A Novel Cell-Based Assay to Identify Small Molecules for B -Galactocerebrosidase; further: 0% is about no effect; nearly all actives have a fitted effect of over 65% in size
Conditions: 145M-Twi-hGALC-G270D cells (Twitcher mouse brain line with human GALC G270D), HMU-beta-Gal fluorescence, 48 h; series mostly up to 57.5 µM; activation: at the top concentration
Outline: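 Live 145M-Twi cells (Twitcher mouse brain-derived, GALC-null) stably expressing human GALC-G270D, with a wild-type GALC line, were compound-treated. Residual GALC activity was then read as fluorescence from 0.1 mM final HMU-β-gal at pH 5.2; higher signal means activation.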

activation, inactive:
COc1ccc(CC(=O)NCCc2csc(-c3ccc(Cl)cc3)n2)cc1 5.83%
CCn1nc(C)c(CCN(C)C(=O)Nc2cc(Cl)ccc2C)c1C -14%
O=C(Nc1ccc(Cl)cc1)N1CCN(c2ccc3nnc(-c4ccc(F)cc4)n3n2)CC1 2.8%
Cc1ccc(-n2nc(CO)c(C(=O)NCc3cccs3)n2)cc1 -24.7%
COc1cc2c(c(OC)c1OC)-c1ccc(OC)c(=O)cc1[C@@H](NC(C)=O)CC2 -10.2%
Cc1ccc(CNC(=O)CCS(=O)(=O)c2cc(Br)cc3c2N(C(=O)C2CC2)CC3)cc1 -15.8%
Cc1cc(NC(=O)Nc2nc3c(s2)CCCCCC3)ccc1Br -18.3%
CCCCn1c(CNC(=O)c2ccc(OC)cc2)nnc1SCC(=O)Nc1ccc(OC)cc1 -10.3%
Cc1ccc(NCc2nc3ccccc3n2CCOc2ccccc2)cc1 -8.58%
COc1ccccc1Nc1cc(C(=O)NCc2cccs2)c2ccccc2n1 -8.59%
CCC(=O)N1CCc2cc(S(=O)(=O)CCC(=O)NCc3ccccc3OC)ccc21 -1.94%
Cc1cc(C)c(S(=O)(=O)NCC(c2cccs2)S(=O)(=O)c2ccccc2)c(C)c1 (stereo not drawn) -18.1%
CN(C)S(=O)(=O)c1ccc2c(c1)N(CC(=O)N1CCN(c3ccc(F)cc3)CC1)CCS2 -18.2%
Cc1ccc(-c2nc(CS(=O)CC(=O)N3CCN(c4ccc(Cl)cc4)CC3)c(C)o2)cc1 (stereo not drawn) -10.1%
COc1ccc2nc3oc(C(=O)NCc4ccccc4OC)cc3cc2c1 -14.8%
NC(=O)CSc1ncc2c(n1)-c1ccccc1N(Cc1cccc(F)c1)S2(=O)=O -0.853%
COc1ccc(-c2noc(-c3nnn(-c4cc(C)ccc4C)c3N)n2)cc1 -24.9%
COc1ccccc1-c1nnc(C2CCN(C(=O)c3ccc(C)cc3)CC2)o1 -17.3%
Cc1ccc(-n2ncc(C(=O)NCCc3ccsc3)c2C2CCN(C(=O)OC(C)(C)C)CC2)cc1C -0.891%
Cc1nc2ccccc2c(=O)n1-c1ccc(NC(=O)C(F)(F)F)cc1 -16%
Cc1cc(NC(=O)CSc2ncc(C(=O)Nc3ccc(F)cc3)c(=O)n2C)no1 1.66%
CC1CCN(c2ccc(-c3nc(C(C)C)no3)cc2[N+](=O)[O-])CC1 -24%
CCN(CC)CCNC(=O)c1ccc(Cn2c(=O)c3cccn3c3cccnc32)cc1 -13.7%
CCOc1ccccc1NC(=O)c1c(NCc2sccc2C)sc2c1CCCCC2 -19.6%
CCCNC(=O)c1ccc(-n2c(-c3ccccc3)cc3c2CCC(C)C3)cc1 (stereo not drawn) 11.4%
O=C(CC(NCc1cccnc1)C(=O)O)Nc1ccc(F)cc1 (stereo not drawn) -21.8%
O=c1oc2ccc(Br)cc2cc1-c1csc(-c2ccc(Cl)cc2)n1 -15%
CCCN1C(=O)C2(c3ccccc31)c1c(oc3ccccc3c1=O)C(=O)N2CCO (stereo not drawn) -0.979%
Cc1cccc(N2CCN(C(=O)CS(=O)(=O)c3cccc4nsnc34)CC2C)c1 (stereo not drawn) -23.9%
C=Cc1ccc(Cn2c(C(=O)O)c(CNCc3cc(Br)ccc3OC)c3ccc(C)cc32)cc1 -12.5%
CCc1ccccc1NC(=O)N1CCN(c2cc(-c3noc(C)n3)ccc2C)CC1 -9.29%
COc1ccc2oc(=O)c(C(=O)NCCc3c(C)[nH]c4c(Cl)cccc34)cc2c1 -6.19%
COc1cc2ccccc2cc1C(=O)Nc1cccc(-c2nc3cc(C)c(C)cc3o2)c1C -11.3%
Cc1nc2nc(NCc3cccc(Br)c3)[nH]n2c(=O)c1Cc1ccccc1 -10.4%
O=C(Nc1cccc(Cl)c1Cl)c1ccc2c(c1)N(Cc1cccc(Cl)c1)C(=O)c1ccccc1S2(=O)=O 1.44%
Cn1nnnc1SCCNCc1ccc(F)cc1 -4.33%
CCOC(=O)c1cccc(NC(=O)C(CC(C)C)N2Cc3ccccc3C2=O)c1 (stereo not drawn) -36.4%
O=S(=O)(Nc1ccc(Cl)cc1)c1ccc(NS(=O)(=O)c2ccc3c(c2)OCCO3)cc1 -26.4%
Cc1ccc(CN(C(=O)COc2cccc([N+](=O)[O-])c2)c2ccccn2)o1 -19.8%
CCOc1ccc(CCNC(=O)CCCn2nc(C)c3sc4ccccc4c3c2=O)cc1OCC -3.53%
O=C(CSc1nccn1-c1ccccc1)Nc1nc2ccccc2s1 -40.2%
CCOc1ccc(CNC(=O)CCC(=O)N2CC(C)Sc3ccccc32)cc1 (stereo not drawn) -2.15%
COC(=O)CC1c2cc(OC)c(OC)cc2CCN1C(=O)Nc1ccc(C)cc1Cl (stereo not drawn) -18.6%
COc1ccccc1Nc1nn2c(=O)c3ccc(C(=O)NCCCOC(C)C)cc3nc2s1 -22.8%
N#C/C(=C/c1cn(Cc2ccc(F)cc2)c2ccccc12)C(=O)Nc1cccc(Cl)c1 -15.1%
CCn1c2ccccc2c2nnc(SCCN3CCCCC3)nc21 -12.6%
COc1cc(-c2noc(-c3ccc(NCc4cccnc4)c([N+](=O)[O-])c3)n2)cc(OC)c1OC -6.66%
COc1ccc(OC)c(CNC(=O)CCCn2ccc3cc(S(=O)(=O)N4CCCC4)ccc32)c1 9.79%
Cc1ccc(NC(=O)c2cnc(SCC(=O)N3CCOCC3)n(C)c2=O)cc1 -14.4%
CCc1ccc(CNC(=O)c2cccc(-n3cnc4cccnc43)c2C)cc1 -11.8%
CCOc1ccc(OCC)c(NC(=O)Cn2ncc3c4ccccc4n(Cc4ccccc4)c3c2=O)c1 1.57%
Cn1ccc2cc(S(=O)(=O)N3CCCN(C(=O)Nc4ccccc4Br)CC3)ccc21 -1.97%
CCC1CN(C(=O)N2CCC(C(=O)NCCN(C)C)CC2)c2ccccc2O1 (stereo not drawn) 2.21%
CN(c1ccc(Cl)cc1)S(=O)(=O)c1nnc(NC(=O)C2CCCCC2)s1 5.83%
COc1cccc(NC(=O)CN(C)S(=O)(=O)c2ccc3nc(C)sc3c2)c1 -8.31%
COc1ccc(C)cc1N(C)C(=O)c1c(C)oc2ncnc(N3CCOCC3)c12 -6.02%
CCOc1ccccc1NC(=O)c1c(NC(=O)c2ccccc2C)sc2c1CCC(C)C2 (stereo not drawn) -11.5%
CCNC(=O)c1cnc2sc(N3CCCCCC3)nn2c1=O -8.47%
COC(=O)c1c(C)sc(-c2c(-c3ccc4c(c3)OCCO4)[nH]c3c2c(=O)n(C)c(=O)n3C)c1O -6.69%
COc1cc(C(=O)Oc2c(Sc3ccc(C)cc3)c(C)nn2-c2ccccc2)cc(OC)c1OC -8.1%
Cc1ccc2c(c1)cc(C(=O)Nc1ccc(F)cc1F)n2C -17.5%
Cc1cccc(NC(=O)C2CCCN(S(=O)(=O)c3cnc[nH]3)C2)c1C (stereo not drawn) -34.9%
Cc1ccn2c(Nc3ccc4c(c3)OCCO4)c(-c3ccc(Cl)s3)nc2c1 -9.14%
CN(C1CCCCC1)S(=O)(=O)c1ccc2c(c1)c(=O)c(C(=O)NCCc1ccccc1)cn2C -22.6%
O=C(NCCc1ccc(Cl)cc1)c1ccc(CS(=O)Cc2cccc(Cl)c2)o1 (stereo not drawn) -19.3%
CCC(C)NC(=O)c1cnn(-c2ccc(Cl)cc2)c1C1CCN(C(=O)OC(C)(C)C)CC1 (stereo not drawn) -8.45%
COC(=O)c1n[nH]n(-c2ccccc2)c1=O -14.6%
Nc1nnc(SCC(=O)Nc2ccccc2C(F)(F)F)s1 -2.36%
Cn1c(=O)c2cc(C(=O)N3CCN(c4ccc(Cl)cc4)CC3)sc2c2ccccc21 -12.7%
Cc1ccc(C(=O)N(Cc2ccc(N(C)C)cc2)Cc2ccco2)cc1 -3.98%
CCOC(=O)c1cc(NC(=O)c2ccc(F)cc2)c(=O)n2c1oc1ccccc12 14.2%
Cc1oc(-c2ccc(C(=O)Nc3cc(F)ccc3F)cc2)nc1COc1ccccc1 12.4%
Cc1ccc2c(c1)C(c1ccccc1)N(C(=O)Cc1ccc(F)cc1)CC(=O)N2 (stereo not drawn) -3.62%
Cc1cc(C)n(-c2nnc(Nc3ccc(C)c(Cl)c3)c3ccccc23)n1 10.5%
Cn1c(=O)[nH]c2cc(-c3noc(-c4ccc(C#N)cc4)n3)ccc21 -17.3%
CCCS(=O)(=O)NCCc1sc2nc(-c3ccc(F)cc3)nn2c1C -7.73%
COc1cc(C2Nc3c(C)cc(C)cc3-c3cc(C)nn32)cc(OC)c1O (stereo not drawn) 4.63%
O=C(c1cccn1-c1nnc(N2CCCC2)s1)N1CCN(c2ccc(Cl)cc2)CC1 -24.7%
O=C(COc1ccc2ccccc2c1)NC1CC(=O)N(c2cccc(F)c2)C1 (stereo not drawn) -14.8%
CC1=C(C(=O)Nc2ccc(Cl)cc2)C(CC(C)C)n2nc(SCc3ccccc3C)nc2N1 (stereo not drawn) -13%
Cc1ccc(S(=O)(=O)Nc2nc3n(n2)C(c2ccc(F)cc2)C=C(c2ccccc2)N3)cc1 (stereo not drawn) -6%
Nc1nc2ccc([N+](=O)[O-])cc2s1 -13% [at 114 µM]
CC(=O)Nc1ccc(S(=O)(=O)NCC2CCC(C(=O)NCCN(CC(C)C)CC(C)C)CC2)cc1 (stereo not drawn) -9.97%
CN(C)C(=O)c1c(NC(=O)c2ccccc2F)sc2c1CCCC2 -14.1%
COc1ccc(C2=NC(C)(C)N(CC(=O)Nc3cccc(C)c3)C2=O)cc1 -14.2%
COc1ccc(Cn2c(C(=O)O)c(CNCCc3cc(OC)ccc3OC)c3ccc(C)cc32)cc1 -17.8%
CCCCCCCC(=O)[O-].CCCCCCCC(=O)[O-].[Zn+2] -14.4%
COc1ccccc1CNS(=O)(=O)c1cnc(N)nc1 -3.85%
COc1ccc(C2c3c(n(C)c4ccccc34)C(=O)N2CC(=O)Nc2cccc(F)c2)cc1 (stereo not drawn) -16%
O=c1oc2ccc3ccccc3c2cc1-c1nnc(Nc2ccc(F)cc2)s1 2.8%
CCCc1cc(=O)[nH]c2nnc(SCC)n12 -12.4%
Cc1ccc(N2CC(C)Cn3c2nc2c3c(=O)n(Cc3cccc(Cl)c3)c(=O)n2C)cc1 (stereo not drawn) -6.72%
COc1ccc(NC(=O)c2oc3ccc(S(=O)(=O)N4CCOCC4)cc3c2C)cc1 15.2%
O=C(NCC(c1ccco1)S(=O)(=O)c1cccs1)c1ccccc1F (stereo not drawn) 0.885%
COc1cccc(CNc2cc(C)nc3nc(-c4ccc(C)cc4)nn23)c1 -28.2%
NS(=O)(=O)c1cc2c(cc1C(F)(F)F)NC(Cc1ccccc1)NS2(=O)=O (stereo not drawn) -14.1%
Cc1ccc(Cl)cc1N1CCN(CCCNC(=O)c2ccc3nc(N4CCCCC4)sc3c2)CC1 -6.02%
Cc1ccc(-n2nc3c(=O)n(C(C)C(=O)NCc4ccco4)nc(C)c3c2C)cc1 (stereo not drawn) -8.67%
